Reference: the supplement of paper PMC9151546
Counter-ions that a name gives are not always drawn. Many values rest on one well or one pass, so single values are uncertain.

How the values were obtained:
CHO-K1 [1] = assay: hypodiploid nuclei frequency (% of nucleated events); higher = more hypodiploid events (aneugenic)
Experimental: (§1)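 Flow-cytometric in vitro micronucleus assay (Litron MicroFlow) in CHO-K1 cells in 96-well plates, 19 concentrations (4.5-200 µM, n=1 per concentration). Without S9, cells were exposed for 24 h and sampled at 48 h. With Aroclor 1254-induced rat liver S9, cells were exposed for 3-4 h and sampled at 27-28 h. Read-outs are %MN and %hypodiploid nuclei relative to nucleated events, and relative survival as the nuclei-to-bead ratio versus the 1% DMSO vehicle control (x100).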

CHO-K1 [2] = assay: micronucleus frequency (% of nucleated events); higher = more micronuclei (genotoxic)
CHO-K1 [3] = assay: relative survival (nuclei to bead ratio vs DMSO control) (% of vehicle control); higher = more surviving cells
Experimental: as §1
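Wherever hypodiploid nuclei frequency (% of nucleated events) is given: hypodiploid nuclei gated on a flow cytometer with 488 nm excitation after SYTOX Green staining, cultures at 37 °C, positive controls vinblastine without S9 and cyclophosphamide with S9.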
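Wherever micronucleus frequency (% of nucleated events) is given: cells lysed with nuclei stained by SYTOX Green, then micronucleus-gated events counted against nucleated events by flow cytometry with 488 nm excitation.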
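Wherever relative survival (nuclei to bead ratio vs DMSO control) is given: Lysed-cell nuclei stained with SYTOX Green and counted against counting beads by flow cytometry at 488 nm excitation, with vinblastine (no S9) and cyclophosphamide (plus S9) as positive controls.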

CN(C)[C@@H]1C(O)=C(C(N)=O)C(=O)[C@@]2(O)C(O)=C3C(=O)c4c(O)cccc4[C@@](C)(O)[C@H]3[C@H](O)[C@@H]12 [Oxytetracycline hydrochloride]
Conditions | hypodiploid nuclei frequency, CHO-K1 [1] [%] | micronucleus frequency, CHO-K1 [2] [%] | relative survival, CHO-K1 [3]
concentration: 4.5 (µM), S9 metabolic activation: with S9, exposure time: 3-4 hours | 0.26 | 1.42 | 122
concentration: 4.5 (µM), S9 metabolic activation: without S9, exposure time: 24 hours | 0.52 | 1.32 | 78
concentration: 5.63 (µM), S9 metabolic activation: with S9, exposure time: 3-4 hours | 0.18 | 1.02 | 86.6
concentration: 5.63 (µM), S9 metabolic activation: without S9, exposure time: 24 hours | 0.76 | 2.48 | 88.9
concentration: 7.04 (µM), S9 metabolic activation: with S9, exposure time: 3-4 hours | 0.2 | 1.28 | 84.2
concentration: 7.04 (µM), S9 metabolic activation: without S9, exposure time: 24 hours | 0.7 | 2.2 | 98.3
concentration: 8.8 (µM), S9 metabolic activation: with S9, exposure time: 3-4 hours | 0.1 | 1.28 | 96.1
concentration: 8.8 (µM), S9 metabolic activation: without S9, exposure time: 24 hours | 0.6 | 1.42 | 87.5
concentration: 11 (µM), S9 metabolic activation: with S9, exposure time: 3-4 hours | 0.32 | 1.62 | 99.9
concentration: 11 (µM), S9 metabolic activation: without S9, exposure time: 24 hours | 1.04 | 1.96 | 60.9
concentration: 13.7 (µM), S9 metabolic activation: with S9, exposure time: 3-4 hours | 0.28 | 1.64 | 105
concentration: 13.7 (µM), S9 metabolic activation: without S9, exposure time: 24 hours | 0.74 | 1.56 | 89.2
concentration: 17.2 (µM), S9 metabolic activation: with S9, exposure time: 3-4 hours | 0.32 | 1.4 | 124
concentration: 17.2 (µM), S9 metabolic activation: without S9, exposure time: 24 hours | 0.54 | 1.76 | 82.5
concentration: 21.5 (µM), S9 metabolic activation: with S9, exposure time: 3-4 hours | 0.24 | 1.32 | 104
concentration: 21.5 (µM), S9 metabolic activation: without S9, exposure time: 24 hours | 0.8 | 1.9 | 68.3
concentration: 26.8 (µM), S9 metabolic activation: with S9, exposure time: 3-4 hours | 0.34 | 1.52 | 82.2
concentration: 26.8 (µM), S9 metabolic activation: without S9, exposure time: 24 hours | 0.36 | 1.46 | 81.6
concentration: 33.6 (µM), S9 metabolic activation: with S9, exposure time: 3-4 hours | 0.22 | 1.04 | 108
concentration: 33.6 (µM), S9 metabolic activation: without S9, exposure time: 24 hours | 0.64 | 1.28 | 91
concentration: 41.9 (µM), S9 metabolic activation: with S9, exposure time: 3-4 hours | 0.3 | 1.58 | 107
concentration: 41.9 (µM), S9 metabolic activation: without S9, exposure time: 24 hours | 0.34 | 1.98 | 75.7
concentration: 52.4 (µM), S9 metabolic activation: with S9, exposure time: 3-4 hours | 0.3 | 1.92 | 87.1
concentration: 52.4 (µM), S9 metabolic activation: without S9, exposure time: 24 hours | 0.74 | 1.64 | 83.4
concentration: 65.5 (µM), S9 metabolic activation: with S9, exposure time: 3-4 hours | 0.4 | 3.34 | 91.3
concentration: 65.5 (µM), S9 metabolic activation: without S9, exposure time: 24 hours | 0.72 | 1.3 | 81
concentration: 81.9 (µM), S9 metabolic activation: with S9, exposure time: 3-4 hours | 0.2 | 1.14 | 99.4
concentration: 81.9 (µM), S9 metabolic activation: without S9, exposure time: 24 hours | 1 | 1.54 | 68.5
concentration: 102 (µM), S9 metabolic activation: with S9, exposure time: 3-4 hours | 0.34 | 2.22 | 91.9
concentration: 102 (µM), S9 metabolic activation: without S9, exposure time: 24 hours | 1.12 | 1.94 | 65.9
concentration: 128 (µM), S9 metabolic activation: with S9, exposure time: 3-4 hours | 0.36 | 1.38 | 101
concentration: 128 (µM), S9 metabolic activation: without S9, exposure time: 24 hours | 0.7 | 1.4 | 65.2
concentration: 160 (µM), S9 metabolic activation: with S9, exposure time: 3-4 hours | 0.48 | 1.72 | 97.5
concentration: 160 (µM), S9 metabolic activation: without S9, exposure time: 24 hours | 1.4 | 2.06 | 74.7
concentration: 200 (µM), S9 metabolic activation: with S9, exposure time: 3-4 hours | 0.62 | 2.16 | 98.2
concentration: 200 (µM), S9 metabolic activation: without S9, exposure time: 24 hours | 1.48 | 2.32 | 60.1
